Our source for the switch fluorescence ratio values is the supplement of paper PMC10126150.

Values marked as one replicate rest on one cluster of the flow cell; about a third of the high ones do not repeat.
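Note: ATP exposure 15 min at 22 °C before imaging.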

This series deals with ATP. The series can be described thus: switch fluorescence ratio, 500 uM ATP over buffer (Cy3 cluster intensity, sum of 5 cycles each) (fold (ratio)); higher = stronger signal-on switching upon ATP binding; sequences stand for … in TCGTCGGCAGCGTCAGATGTGTATAAGAGACAGTTTTTTTTTTTTTTTTTTTTTTTTT…TC. As to conditions: aptamer strand: ATP DNA aptamer (quencher-CACCTGGGGGAGTATTGCGGAGGAAGG + anchor), 100 nM annealed; ATP concentration: 500 uM; one replicate. The procedure, abridged:
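The quencher-labelled ATP aptamer, at 100 nM, was annealed to Cy3-labelled switching-strand clusters on a modified Illumina MiSeq flow-cell. The clusters were imaged in selection buffer, then after 15 min with 500 uM ATP at 22 °C, and this buffer/ATP cycle ran five times with NaOH stripping and re-annealing between runs. Per-cluster fluorescence ratios, summed target-cycle over summed buffer-cycle Cy3 intensity, were averaged per switch-domain sequence. Clusters outside 100-1000 RFU were excluded.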
For GGGCCTGCGG, the switch fluorescence ratio came out at 0.954.

Regarding TCCGTATATA, the switch fluorescence ratio worked out at 1.79.

As to GGTGGTAGAT, the switch fluorescence ratio stood at 0.962.

On to TGGAATAAGA, for which the switch fluorescence ratio amounted to 0.999.

Consider GATGTCCGCC, for which the switch fluorescence ratio came to 1.65.

Take GATAGAGTTA: the switch fluorescence ratio amounted to 0.991.

For TGAACGAGGT, the switch fluorescence ratio stood at 1.01.

Take CCATCTCGGC: the switch fluorescence ratio stood at 1.02.

As to TGACGAAAT, the switch fluorescence ratio turned out to be 1.41.

In the case of AAAAATAGTA, the switch fluorescence ratio was found to be 0.968.

Take GTCTCGGCTG: the switch fluorescence ratio stood at 1.02.

With GCGCATACGT, the switch fluorescence ratio stood at 1.66.

As for CGCACTTGCT, the switch fluorescence ratio was 1.08.

As to TCGAAGGCT, the switch fluorescence ratio turned out to be 1.03.

For the sequence TTCTGCCCTT, the switch fluorescence ratio was determined as 1.12.

On to AGGGTAGAAA, for which the switch fluorescence ratio was determined as 1.03.

Consider ATTCATTAAT, for which the switch fluorescence ratio turned out to be 1.01.

As to AGCGTGGGGT, the switch fluorescence ratio stood at 1.03.

Regarding TTCAGTTCTT, the switch fluorescence ratio was determined as 0.952.

With AGTATAGAG, the switch fluorescence ratio came out at 0.966.

TGTGTTAATC: the switch fluorescence ratio stood at 0.961.

For TACCATAGCT, the switch fluorescence ratio came to 1.11.

Turning to TTCTCCTCAC, the switch fluorescence ratio came to 1.81.

AATTGGATAA: the switch fluorescence ratio was found to be 1.03.

In the case of TTTCTCCGGA, the switch fluorescence ratio is 1.05.

Regarding CTGTTCTGCC, the switch fluorescence ratio amounted to 0.975.

For the sequence AAGCAGCTCC, the switch fluorescence ratio is 1.35.

On to ACGGCCCCAA, for which the switch fluorescence ratio came to 1.21.

On to GACTCTGGCA, for which the switch fluorescence ratio came out at 1.06.

Consider CCGTCAGAA, for which the switch fluorescence ratio turned out to be 1.24.

TGTAATCTAG: the switch fluorescence ratio was 1.02.

Take GTCGTGAGG: the switch fluorescence ratio is 1.

Regarding TAATAATGTA, the switch fluorescence ratio was found to be 1.02.

Regarding TCAAGTACTG, the switch fluorescence ratio was 1.28.

For the sequence CTAGGGAGGA, the switch fluorescence ratio came out at 1.03.

As to CATTCGCCAA, the switch fluorescence ratio is 5.21.

GGAAACATGG: the switch fluorescence ratio worked out at 1.07.

With GGCCTCGTGA, the switch fluorescence ratio is 1.04.

On to TATATCCGAT, for which the switch fluorescence ratio is 1.

As to AAGGGAACAG, the switch fluorescence ratio amounted to 1.

With AACAGAAGC, the switch fluorescence ratio turned out to be 1.04.

With ACGAATTGGG, the switch fluorescence ratio was 1.02.

CGCGGGAAAC: the switch fluorescence ratio was 1.06.

For the sequence ATACATGTA, the switch fluorescence ratio is 0.989.

Consider TTTGTGACGT, for which the switch fluorescence ratio worked out at 0.969.

GACATATCAG: the switch fluorescence ratio was 0.986.

Turning to TAAGTCCATT, the switch fluorescence ratio is 1.01.

As to TGGAAGGCGT, the switch fluorescence ratio was determined as 1.01.

Take TAAATTGAAG: the switch fluorescence ratio amounted to 0.975.

Regarding TCAGAACTTT, the switch fluorescence ratio is 0.971.

For CCGAATATTC, the switch fluorescence ratio came out at 1.48.

For TTTTTGGCC, the switch fluorescence ratio stood at 1.01.

On to TATTTGGAAC, for which the switch fluorescence ratio is 1.02.

On to GATGGATTGG, for which the switch fluorescence ratio was found to be 0.971.

Take CCATAATGCA: the switch fluorescence ratio came to 1.04.

Regarding GTACGAGGAC, the switch fluorescence ratio turned out to be 1.03.

As to TAATTAGATA, the switch fluorescence ratio was 0.959.

As to GGTCACGATC, the switch fluorescence ratio was 0.946.

TAATTATTAT: the switch fluorescence ratio is 0.997.

On to GAGAGTTT, for which the switch fluorescence ratio was found to be 1.

In the case of TTGCGATAAC, the switch fluorescence ratio is 2.08.

Consider CCCGGGAAGG, for which the switch fluorescence ratio was determined as 0.981.

Turning to CGTTTCAGAA, the switch fluorescence ratio came to 1.02.

As to AGGGGGCAGT, the switch fluorescence ratio is 1.02.

For TATGGGGCT, the switch fluorescence ratio came out at 1.

With ACGACATTTG, the switch fluorescence ratio came out at 0.992.

Regarding TCCTCTGGTC, the switch fluorescence ratio was 1.92.
